{"source": "PubChem BioAssay AID624296", "about": "(National Center for Advancing Translational Sciences (NCATS), 2012)", "note": "In all, about 350,000 compounds went through this assay and about 9,900 (2.8%) were called active. The inconclusive results got no clear call from the source; some entries with a clear call stand among them for comparison. Calls come from the whole dose curve; as a rule, active = well fitted activation curve with a large enough effect; inconclusive = small, poorly fitted or top-dose-only effect; inactive = no such curve, though single readings can be large or run the other way. No potency is given beside an inconclusive call; the fits are too rough. Potency is the fitted concentration of half-maximal effect; tags give direction and shape of the fitted curve.", "data": [{"experiment": "A quantitative high throughput screen for small molecules that induce DNA re-replication in MCF 10a normal breast cells; note: nearly all actives have a fitted effect of over 50% in size; for activity, positive = re-replication: % of control where 0% means no effect.", "settings": "MCF 10A DNA re-replication, Hoechst nuclear intensity, 48 h; activity, positive = re-replication: at 46.1 µM (top of the series)", "values": [{"smiles": "O=C(Nc1ccc(N2CCN(c3ncccc3C(F)(F)F)CC2)nc1)c1cccs1", "Potency": "inconclusive [activator, single point]"}, {"smiles": "O=C(NCc1ccccc1Cl)c1cccc2c1C(=O)c1ccc(-c3ccc(OC(F)(F)F)cc3)cc1S2(=O)=O", "Potency": "inconclusive [activator, full curve, poor fit]"}, {"smiles": "COc1ccc(C#Cc2c(-c3ccccc3)n(C)c3ccccc23)cc1", "Potency": "inconclusive [activator, partial curve, poor fit]"}, {"smiles": "CCOP(=O)(OCC)c1nc(/C=C/c2ccccc2)oc1NCc1ccccc1", "Potency": "inconclusive [activator, single point]"}, {"smiles": "CC(C)Sc1nc(SCC(=O)NCc2ccco2)c2c3c(sc2n1)COC(C)(C)C3", "Potency": "inconclusive [activator, partial curve, poor fit]"}, {"smiles": "C[C@H]1CN([C@@H](C)CO)C(=O)c2cccc(NC(=O)Nc3ccc(C(F)(F)F)cc3)c2O[C@@H]1CN(C)S(=O)(=O)c1ccc(Cl)cc1", "Potency": "inconclusive [activator, single point]"}, {"smiles": "O=C(Cc1ccccc1F)Nc1ccc(S(=O)(=O)N2CCCCC2)cc1", "Potency": "inactive"}, {"smiles": "CCOc1ccc(C(C(=O)NCC2CCCO2)N(Cc2cccs2)C(=O)c2snc(C(N)=O)c2N)cc1", "note": "(stereo not given)", "Potency": "inactive"}, {"smiles": "Cc1ccc(C)c(CN2CCC(CNC(=O)Nc3cccc(Cl)c3C)CC2)c1", "Potency": "inconclusive [activator, single point]"}, {"smiles": "CCN1CCCC1CNC(=O)CSc1cc(=O)n(CC)c2ccccc12", "note": "(stereo not given)", "Potency": "inconclusive [activator, partial curve, poor fit]"}, {"smiles": "O=C(COC(=O)C1CCCCC1)Nc1ccccc1OC(F)F", "Potency": "inconclusive [activator, single point]"}, {"smiles": "CC1=CC(C)(C)N(C(=O)c2ccc(F)cc2)c2cc3c(cc21)OCO3", "Potency": "inconclusive [activator, single point]"}, {"smiles": "CCn1cc(C2=NC(c3ccccc3)CO2)c2ccccc21", "note": "(stereo not given)", "Potency": "inconclusive [activator, single point]"}, {"smiles": "CCOc1cccc2cc(-c3nnc(NCc4ccc5c(c4)OCO5)s3)c(=O)oc12", "Potency": "inconclusive [activator, full curve]"}, {"smiles": "O=C(NC(=S)Nc1cccc(Cl)c1N1CCOCC1)c1cccs1", "Potency": "inactive"}, {"smiles": "COc1cccc(CN(C)C(=O)Cc2c[nH]c3ccccc23)c1OC", "Potency": "inconclusive [activator, partial curve, poor fit]"}, {"smiles": "COc1ccc(Oc2ccc(C(F)(F)F)cc2NC(=O)CC(CC(=O)O)c2ccccc2)cc1", "note": "(stereo not given)", "Potency": "inactive"}, {"smiles": "CC[C@H](C)[C@H]1CNC(=O)C(=O)N1CC1CCN(CC2CCC(C)CC2)CC1", "note": "(stereo not given in full)", "Potency": "inconclusive [activator, partial curve, poor fit]"}, {"smiles": "Cc1ccc(OCC(=O)NCc2n[nH]c(=O)c3ccccc23)cc1", "Potency": "inactive"}, {"smiles": "CCOC(=O)N1CCC(N2CCCC(CO)(Cc3cccc(Cl)c3)C2)CC1", "note": "(stereo not given)", "Potency": "inconclusive [activator, partial curve, poor fit]"}, {"smiles": "Cc1ccccc1NC(=O)CSC1=C(C#N)C(c2ccsc2)CC(=O)N1", "note": "(stereo not given)", "Potency": "inconclusive [activator, single point]"}, {"smiles": "Clc1ccc(Cn2c(CN3CCCC3)nc3ccccc32)cc1", "Potency": "inconclusive [activator, partial curve, poor fit]"}, {"smiles": "O=c1oc2ccccc2c(O)c1C=Nc1cccnc1", "Potency": "inconclusive [activator, partial curve, poor fit]"}, {"smiles": "O=c1[nH]c(=O)n(CCOc2ccc(Cl)cc2)cc1Br", "Potency": "inactive"}, {"smiles": "N#CC1=C(N)Oc2n[nH]c(-c3cccs3)c2C1c1ccoc1", "note": "(stereo not given)", "Potency": "inconclusive [activator, full curve]"}, {"smiles": "CC(=O)N1c2ccccc2S(=O)(=O)c2ccccc21", "Potency": "inconclusive [activator, full curve, poor fit]"}, {"smiles": "CCOC(=O)c1c(NC(=O)CCN2CCOCC2)sc(C)c1-c1ccccc1", "Potency": "inconclusive [activator, partial curve, poor fit]"}, {"smiles": "CC(Oc1ccccc1Cl)C(=O)/C=C/N(C)C", "note": "(stereo not given)", "Potency": "active: 18.4 µM"}, {"smiles": "CCN(CC)CCNC(=S)Nc1ccc2nc(N3CCN(C)CC3)cc(C)c2c1", "Potency": "inconclusive [activator, single point]"}, {"smiles": "O=C(NCCc1ccccc1)C(c1ccc(F)cc1)N(C(=O)c1csnn1)C1CC1", "note": "(stereo not given)", "Potency": "inactive"}, {"smiles": "CC(C)Oc1ccc(C(=O)Nc2c3c(nn2C(C)(C)C)CS(=O)(=O)C3)cc1", "Potency": "inactive"}, {"smiles": "C/C(=N\\NC(=O)Cc1ccccc1)c1ccc(Br)s1", "Potency": "inactive"}, {"smiles": "Cc1cc(C)cc(NC(=O)C2CCCN(c3nccc(C)n3)C2)c1", "note": "(stereo not given)", "Potency": "inconclusive [activator, single point]"}, {"smiles": "O=C(Nc1ccc(C(=O)NCCCN2CCN(c3ccccc3)CC2)cc1)C1=CSCCO1", "Potency": "inactive"}, {"smiles": "Cc1cc2c(cc1S(=O)(=O)CCC(=O)NC1CCCCC1C)OCC(=O)N2", "note": "(stereo not given)", "Potency": "inactive"}, {"smiles": "Cc1ccc(N(CC(=O)NC(C)c2ccccc2)S(=O)(=O)c2c(C)n[nH]c2C)cc1", "note": "(stereo not given)", "Potency": "inconclusive [activator, single point]"}, {"smiles": "Cn1ccc(CC(=O)N2CCC(N3CCC(C(=O)N4CCCC4)CC3)CC2)c1", "Potency": "inconclusive [activator, partial curve, poor fit]"}, {"smiles": "Cc1c(CCC(=O)O)c(=O)n2c([nH]c3ccccc32)c1C#N", "Potency": "inactive"}, {"smiles": "CCN(CC)c1ccc(C(=C2C=CC(=[N+](CC)CC)C=C2)c2ccccc2)cc1", "activity, positive = re-replication": "inconclusive: 50.7% [activator]"}, {"smiles": "Cc1ccc(C)c(OCc2cc(C(=O)N3CC[C@@H]4CCCC[C@H]4C3)no2)c1", "Potency": "inconclusive [activator, partial curve]"}, {"smiles": "O=C1OCCN1C(=O)[C@H]1[C@H](c2ccc(Cl)cc2)C(c2ccccc2)=NN1c1ccccc1", "Potency": "inconclusive [activator, partial curve, poor fit]"}, {"smiles": "CCOC(=O)N1CCN(c2cc(=O)n(Cc3ccc(F)cc3)c(=O)[nH]2)CC1", "Potency": "active: 11.6 µM"}, {"smiles": "CCN(CC)C(=O)[C@H]1C[C@H](CC(=O)NC(C)(C)C)C(=O)N2CCc3c([nH]c4cc(CCC(=O)N(C)C)ccc34)[C@]12C", "Potency": "inactive"}, {"smiles": "CSc1cccc(NC(=S)N(CCCN2CCCC2)Cc2cccn2Cc2ccc(Cl)cc2)c1", "Potency": "active: 20.6 µM"}, {"smiles": "O=C(COc1cccc(Br)c1)Nc1ccc(Cl)c(S(=O)(=O)N2CCOCC2)c1", "Potency": "inconclusive [activator, partial curve, poor fit]"}, {"smiles": "CCN(CC)S(=O)(=O)c1ccc(/C=C/C(=O)Nc2ccc(Br)cc2F)cc1", "Potency": "inconclusive [activator, single point]"}, {"smiles": "CNC(=O)c1ccc(Nc2nnc(-c3ccc(O)cc3)c3ccccc23)cc1", "Potency": "inactive"}, {"smiles": "COc1cccc(C(=O)Nc2ccc(Oc3cccc(C(F)(F)F)c3)nc2)c1", "Potency": "inconclusive [activator, single point]"}, {"smiles": "CCCn1c(SCC(=O)N(C)CC(=O)Nc2ccc(C)cc2)n[nH]c1=O", "Potency": "inactive"}, {"smiles": "O=c1[nH]c(CSc2ncnc3sc(-c4ccccc4)cc23)nc2ccccc12", "Potency": "inconclusive [activator, single point]"}, {"smiles": "c1ccc(SCCOCCN2CCOCC2)cc1", "Potency": "inactive"}, {"smiles": "CN1C(=O)/C(=C/c2ccc(C(F)(F)F)cc2)Sc2ccc(C(=O)N3CCN(c4ccccn4)CC3)cc21", "Potency": "inconclusive [activator, partial curve, poor fit]"}, {"smiles": "Cc1ccc(C)c(-n2nnnc2SCC(=O)NCCC2=CCCCC2)c1", "Potency": "inconclusive [activator, single point]"}, {"smiles": "O=S(=O)(Cc1cc(Cl)nc(-c2ccncc2)n1)c1ccccc1", "Potency": "inconclusive [activator, partial curve, poor fit]"}, {"smiles": "CN(C)CCN(C(=O)c1ccc2ccccc2c1)c1nc2ccc(Br)cc2s1", "Potency": "inactive"}, {"smiles": "Cc1ccc(S(=O)(=O)N/N=C\\c2ccc([N+](=O)[O-])o2)cc1", "Potency": "inconclusive [activator, single point]"}, {"smiles": "COC(=O)c1c(NC2=NS(=O)(=O)c3ccccc32)sc2c1CCC(C(C)(C)C)C2", "note": "(stereo not given)", "Potency": "inconclusive [activator, full curve]"}, {"smiles": "COc1ccc2c(c1)c1ccc3c(c1n2C)C(=O)C=CC3=O", "Potency": "inconclusive [activator, partial curve, poor fit]"}, {"smiles": "CN1CCN(C(=O)CCN2C(=O)/C(=C/c3cccc(Br)c3)SC2=S)CC1", "Potency": "active: 14.6 µM"}, {"smiles": "Cc1cc(/C=C2/C(=N)N3C(c4ccccc4)=CSC3=NC2=O)c(C)n1-c1ccccc1", "Potency": "inconclusive [activator, single point]"}, {"smiles": "CCOc1ccc(NC(=O)CN(C)C(=O)CSCc2ccc(C)cc2)cc1OCC", "Potency": "inconclusive [activator, partial curve, poor fit]"}, {"smiles": "Clc1ccc(Cl)c(OCc2cc(-c3ccccc3Cl)on2)c1", "Potency": "inconclusive [activator, full curve, poor fit]"}, {"smiles": "Cc1ccc(Cn2nc(C)c(NC(=O)CSc3nc4c(c(C(F)(F)F)n3)CCc3ccccc3-4)c2C)cc1", "Potency": "inconclusive [activator, single point]"}, {"smiles": "Cc1ccc(CN2CCC(CNC(=O)C3CCCN(c4ncnc5c4nc4n5CCCCC4)C3)CC2)cc1", "note": "(stereo not given)", "Potency": "inactive"}, {"smiles": "CC(=O)Cc1nsc(NC(=O)c2ccc(COc3ccccc3Cl)o2)n1", "Potency": "inconclusive [activator, partial curve]"}]}]}
